From PMC7819943, “Rice protein-binding microarrays: a tool to detect cis-acting elements near promoter regions in rice” come the findings set out here.

The other results are listed elsewhere or left out.

The assay has as its target T1, OsWOX13 (Oryza sativa, UniProt Q5QMM3 1-267).
T1 sequence: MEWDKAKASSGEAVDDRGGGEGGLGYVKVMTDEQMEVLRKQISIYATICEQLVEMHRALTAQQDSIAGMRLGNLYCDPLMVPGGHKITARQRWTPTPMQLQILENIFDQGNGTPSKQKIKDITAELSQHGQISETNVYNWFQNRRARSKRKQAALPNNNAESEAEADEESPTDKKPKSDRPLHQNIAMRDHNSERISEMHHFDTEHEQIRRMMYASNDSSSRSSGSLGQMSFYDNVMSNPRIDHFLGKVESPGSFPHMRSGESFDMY
Description: protein-binding microarray (RPBM); PBS, 2% BSA, 51.3 ng/ul salmon testes DNA, 50 uM zinc acetate, 200 nM TF, 25 C, 1 h; high values mean tight binding. As to conditions: protein: recombinant; tags: N-terminal polyhistidine and DsRed monomer fusion (pET32a); label: CyDye5-dUTP incorporated in the synthesized complementary strand; 3' TTTTT single-stranded linker to array surface; dsDNA, one strand shown. Summed up: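 The binding signal for each feature is its fluorescence intensity in arbitrary units. An Axon 4000B scanner was used to read a custom Agilent array that had been made double-stranded with Cy5-dUTP primer extension, blocked with 2% BSA, incubated at 25 °C for 1 h with 200 nM protein in PBS, 2% BSA, salmon testes DNA and 50 µM zinc acetate, and washed. The protein was an N-terminal polyhistidine–DsRed transcription factor fusion from E. coli BL21-CodonPlus, purified on Ni–NTA.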
For the sequence “ATAATAAGTTAAAACCTAATCAATCATACGCTAATGACTTCGGAGTCACCTAGTGCAG”, the binding signal is 6780 fluorescence intensity (a.u.).

As to “CTAATGGTAAATTAATGGAGATTAACCACAGTGCATGGTACGGAGTCACCTAGTGCAG”, the binding signal was 16100 fluorescence intensity (a.u.).

As for “CTGACAGGCAAACCAAACGTGCACTCAGCCACTTACCATGCGGAGTCACCTAGTGCAG”, the binding signal is 4860 fluorescence intensity (a.u.).

On to “CCTGATTGCCCACCGCCCCATCGCCGTTCGCTGGTATATGCGGAGTCACCTAGTGCAG”, for which the binding signal is 48500 fluorescence intensity (a.u.).

For “TTGTGATTTGAGATCTTTCAGTCAATATTCTAAGGGTCGACGGAGTCACCTAGTGCAG”, the binding signal is 16100 fluorescence intensity (a.u.).

As to “CAATAATTGCAAGATCATGTTACAAAACGGTTCTAATTAACGGAGTCACCTAGTGCAG”, the binding signal is 9980 fluorescence intensity (a.u.).

As for “TAATATTTAGTCATGAATTGATAGGCTAAACATTAGCCCACGGAGTCACCTAGTGCAG”, the binding signal was 8930 fluorescence intensity (a.u.).

In the case of “ATTGATTATTATTTTAAAATAAAATGGCGTGTTAGGTTTTCGGAGTCACCTAGTGCAG”, the binding signal is 47300 fluorescence intensity (a.u.).

Turning to “TCAAATAATTTCGGTCAGAAATTTCCGAAATTTTGGTAATCGGAGTCACCTAGTGCAG”, the binding signal was 7080 fluorescence intensity (a.u.).

In the case of “CATATTTAATTTGTTACCATATCAAAATTTTGTAATACCACGGAGTCACCTAGTGCAG”, the binding signal was 15600 fluorescence intensity (a.u.).

As to “AAACAAATTGGTAGGGCACATTTTGGATTCAAACCAAAATCGGAGTCACCTAGTGCAG”, the binding signal is 14200 fluorescence intensity (a.u.).

With “ATATGTAATTTTAGGATTTACATATGTAATTTTAAGACTTCGGAGTCACCTAGTGCAG”, the binding signal is 6930 fluorescence intensity (a.u.).

For the sequence “TTTGCTAGTAATAGATAGATTTTAAGATGAACAAATCTTGCGGAGTCACCTAGTGCAG”, the binding signal was 3940 fluorescence intensity (a.u.).

“ATTGATCATTTTCCATCTTGACTGAATGGAGAATTCTACTCGGAGTCACCTAGTGCAG”: the binding signal is 11200 fluorescence intensity (a.u.).

As for “AGACAATCACTCTCCGTAAACGCATTCTGTAAATTCCCCACGGAGTCACCTAGTGCAG”, the binding signal is 6200 fluorescence intensity (a.u.).

Consider “ACGTCAAAATTGAAAGTTTGATTAAAATTGGAACAATGTGCGGAGTCACCTAGTGCAG”, for which the binding signal is 26200 fluorescence intensity (a.u.).

“CGATTTCTTGTTTAATTACTAATCAATTTCATACATTCATCGGAGTCACCTAGTGCAG”: the binding signal is 13400 fluorescence intensity (a.u.).

“ATTTGACTAACTGTTGACTAGTGGTGATGGCATGTAAGGACGGAGTCACCTAGTGCAG”: the binding signal is 18100 fluorescence intensity (a.u.).

Turning to “GTTAATTTTGTCTATGAATGAACGGTCGGCGTCAAGCTTACGGAGTCACCTAGTGCAG”, the binding signal is 29200 fluorescence intensity (a.u.).

Turning to “AGTGATTACGGAAAACGGAGCGATCCATTAGCACATGATTCGGAGTCACCTAGTGCAG”, the binding signal is 16200 fluorescence intensity (a.u.).

In the case of “TTTTATAATATTTAATTAGATTCCTTGGTACGAAATGAAACGGAGTCACCTAGTGCAG”, the binding signal was 3190 fluorescence intensity (a.u.).

As to “GCTTAATCTCACCCAGTTTGCCCTTATGATTTCTAGATCGCGGAGTCACCTAGTGCAG”, the binding signal is 3790 fluorescence intensity (a.u.).

For “AAATTAAATCACGAGACAGTTTAGTAGGATCCGTGGCTATCGGAGTCACCTAGTGCAG”, the binding signal was 5890 fluorescence intensity (a.u.).

In the case of “TGAACAGGCTAGCTAATTGGTCTCGATTGCGCTTTGGTTACGGAGTCACCTAGTGCAG”, the binding signal is 4440 fluorescence intensity (a.u.).

For “TTTAATCTTTAATATTGATTTTGCCACCAACTAAAACGGCCGGAGTCACCTAGTGCAG”, the binding signal was 4660 fluorescence intensity (a.u.).

In the case of “ACTCTAATTTCCTAACGTTTCTTGACGTAGCCATAAGGTTCGGAGTCACCTAGTGCAG”, the binding signal was 10300 fluorescence intensity (a.u.).

For the sequence “GGCGGGTGGTGATGGCGGGGAGGCAGGCCAACGAGCGCGACGGAGTCACCTAGTGCAG”, the binding signal was 3200 fluorescence intensity (a.u.).

As to “TAAAATTAGCAAACATGAGAGCAAGGGTCTCTGTCCCCGGCGGAGTCACCTAGTGCAG”, the binding signal is 6600 fluorescence intensity (a.u.).

On to “ACCAATTTCCAGTTAACCGCCGTCTGAATTCATTTATCCACGGAGTCACCTAGTGCAG”, for which the binding signal was 9690 fluorescence intensity (a.u.).

Turning to “ATCCTTATTAATTTAATTTAACAAAGTCAACTTGATTTCCCGGAGTCACCTAGTGCAG”, the binding signal was 23100 fluorescence intensity (a.u.).

On to “TGCTGCATTGATAGATACAAATAAATATATATACAGACAACGGAGTCACCTAGTGCAG”, for which the binding signal is 7440 fluorescence intensity (a.u.).

Turning to “GGAGATATGCTTTTCTGATTGTCTTAATAAAATCGTAGTGCGGAGTCACCTAGTGCAG”, the binding signal is 3830 fluorescence intensity (a.u.).

Take “GGTCGATCCATCGATTGATGGATCAATAATGCAAGCAAGCCGGAGTCACCTAGTGCAG”: the binding signal is 5030 fluorescence intensity (a.u.).

For the sequence “GAAGACAAATTTTATATCAAACTTGTAGCTCTCGACGCGACGGAGTCACCTAGTGCAG”, the binding signal is 5880 fluorescence intensity (a.u.).

With “ACAAACAAATTAACATGATACTTGGGAACTCTATATAAACCGGAGTCACCTAGTGCAG”, the binding signal is 7650 fluorescence intensity (a.u.).

For the sequence “AATTATAATATAATTGATCGATAACTAAATTCGAAAAGTCCGGAGTCACCTAGTGCAG”, the binding signal is 21400 fluorescence intensity (a.u.).

In the case of “ACAGGTGCATGATTAATATTTGCATCATATTTCTGCGGGACGGAGTCACCTAGTGCAG”, the binding signal was 4640 fluorescence intensity (a.u.).

On to “TCTATAAATTGGCCTAGTACCTGGAAAGTGAAATCTGCCACGGAGTCACCTAGTGCAG”, for which the binding signal is 7920 fluorescence intensity (a.u.).

With “CGTGCTTCATTGATTTCTGCCATCAGGAGATTATGTTTCCCGGAGTCACCTAGTGCAG”, the binding signal is 5230 fluorescence intensity (a.u.).

Consider “TCGTCGTACACACTTGATTAATTAATGGCGTGGAGGAACACGGAGTCACCTAGTGCAG”, for which the binding signal was 11600 fluorescence intensity (a.u.).

Turning to “ATAAACTAAATTCTATTATCTAATAACCGTTTTGATCTAACGGAGTCACCTAGTGCAG”, the binding signal was 5300 fluorescence intensity (a.u.).

Turning to “CTAAAGGGTTAATTTATTAACACTATTAACACTTTACTTACGGAGTCACCTAGTGCAG”, the binding signal is 4840 fluorescence intensity (a.u.).

Take “TTTCTGTTTCTCAATAATTGAAGCGAATCTGCAAAATTGGCGGAGTCACCTAGTGCAG”: the binding signal was 10400 fluorescence intensity (a.u.).

Turning to “TTAAAATTGATTTCTCTATCCATTCATTCCCATATCCGATCGGAGTCACCTAGTGCAG”, the binding signal is 38300 fluorescence intensity (a.u.).

With “CAGCAATTTAGATTTATCAATCTACGTACGTACAATTTTACGGAGTCACCTAGTGCAG”, the binding signal was 13500 fluorescence intensity (a.u.).

For “CGGGAGGGGAGGGGAATGGATGTGGGGAGGAGAGAGACTGCGGAGTCACCTAGTGCAG”, the binding signal is 3440 fluorescence intensity (a.u.).

Turning to “ATGGACTAATTATGCTCAAAAGATTCGTCTCACGATTTACCGGAGTCACCTAGTGCAG”, the binding signal was 16800 fluorescence intensity (a.u.).

In the case of “GGTAATTTGTCCGGTATTGAAAGTTTAGGGTGAGCAATGTCGGAGTCACCTAGTGCAG”, the binding signal is 22900 fluorescence intensity (a.u.).

For the sequence “GTTTAAATTAGTGAAAGATGGAAGCGATGAGAGTTGTTAGCGGAGTCACCTAGTGCAG”, the binding signal is 11900 fluorescence intensity (a.u.).

“GTATAATCTAGCCATTAATTACACCATTAGTTACGGATAACGGAGTCACCTAGTGCAG”: the binding signal is 9490 fluorescence intensity (a.u.).

On to “ATATAACAATAATAAAATTAAAATAAACTTCACCCGTTGTCGGAGTCACCTAGTGCAG”, for which the binding signal was 3430 fluorescence intensity (a.u.).

With “GAGGATTAATTCCTTGGTCTTGATGTCATTTGCTTAGAGGCGGAGTCACCTAGTGCAG”, the binding signal was 5620 fluorescence intensity (a.u.).

Regarding “TAAATCAACAAGGCATAATTTGAATATTTAATCCTTGTGCCGGAGTCACCTAGTGCAG”, the binding signal was 4620 fluorescence intensity (a.u.).

For “TGAATTTGATTTCTCTATAATGACTGGCTCTGATACCACACGGAGTCACCTAGTGCAG”, the binding signal was 10500 fluorescence intensity (a.u.).
